# According to PubChem BioAssay AID1347165 (National Center for Advancing Translational Sciences (NCATS), 2019):
# The campaign covered roughly 220,000 compounds. About 5,700 (2.6%) were called active. Inconclusive means that the source gave no clear call. Such entries were picked first, then a sample of the others. The call rests on the fitted dose curve; in most records, active means well fitted inhibition curve with a large enough effect; inconclusive means small, poorly fitted or top-dose-only effect; inactive means no such curve, though single readings can be large or run the other way. Potencies of inconclusive entries are doubtful fits and often do not repeat.
# Biological target: Lysine-specific demethylase 5B (Homo sapiens) (UniProt Q9UGL1)
# UniProt Q9UGL1, sequence (Q9UGL1 whole entry, looked up): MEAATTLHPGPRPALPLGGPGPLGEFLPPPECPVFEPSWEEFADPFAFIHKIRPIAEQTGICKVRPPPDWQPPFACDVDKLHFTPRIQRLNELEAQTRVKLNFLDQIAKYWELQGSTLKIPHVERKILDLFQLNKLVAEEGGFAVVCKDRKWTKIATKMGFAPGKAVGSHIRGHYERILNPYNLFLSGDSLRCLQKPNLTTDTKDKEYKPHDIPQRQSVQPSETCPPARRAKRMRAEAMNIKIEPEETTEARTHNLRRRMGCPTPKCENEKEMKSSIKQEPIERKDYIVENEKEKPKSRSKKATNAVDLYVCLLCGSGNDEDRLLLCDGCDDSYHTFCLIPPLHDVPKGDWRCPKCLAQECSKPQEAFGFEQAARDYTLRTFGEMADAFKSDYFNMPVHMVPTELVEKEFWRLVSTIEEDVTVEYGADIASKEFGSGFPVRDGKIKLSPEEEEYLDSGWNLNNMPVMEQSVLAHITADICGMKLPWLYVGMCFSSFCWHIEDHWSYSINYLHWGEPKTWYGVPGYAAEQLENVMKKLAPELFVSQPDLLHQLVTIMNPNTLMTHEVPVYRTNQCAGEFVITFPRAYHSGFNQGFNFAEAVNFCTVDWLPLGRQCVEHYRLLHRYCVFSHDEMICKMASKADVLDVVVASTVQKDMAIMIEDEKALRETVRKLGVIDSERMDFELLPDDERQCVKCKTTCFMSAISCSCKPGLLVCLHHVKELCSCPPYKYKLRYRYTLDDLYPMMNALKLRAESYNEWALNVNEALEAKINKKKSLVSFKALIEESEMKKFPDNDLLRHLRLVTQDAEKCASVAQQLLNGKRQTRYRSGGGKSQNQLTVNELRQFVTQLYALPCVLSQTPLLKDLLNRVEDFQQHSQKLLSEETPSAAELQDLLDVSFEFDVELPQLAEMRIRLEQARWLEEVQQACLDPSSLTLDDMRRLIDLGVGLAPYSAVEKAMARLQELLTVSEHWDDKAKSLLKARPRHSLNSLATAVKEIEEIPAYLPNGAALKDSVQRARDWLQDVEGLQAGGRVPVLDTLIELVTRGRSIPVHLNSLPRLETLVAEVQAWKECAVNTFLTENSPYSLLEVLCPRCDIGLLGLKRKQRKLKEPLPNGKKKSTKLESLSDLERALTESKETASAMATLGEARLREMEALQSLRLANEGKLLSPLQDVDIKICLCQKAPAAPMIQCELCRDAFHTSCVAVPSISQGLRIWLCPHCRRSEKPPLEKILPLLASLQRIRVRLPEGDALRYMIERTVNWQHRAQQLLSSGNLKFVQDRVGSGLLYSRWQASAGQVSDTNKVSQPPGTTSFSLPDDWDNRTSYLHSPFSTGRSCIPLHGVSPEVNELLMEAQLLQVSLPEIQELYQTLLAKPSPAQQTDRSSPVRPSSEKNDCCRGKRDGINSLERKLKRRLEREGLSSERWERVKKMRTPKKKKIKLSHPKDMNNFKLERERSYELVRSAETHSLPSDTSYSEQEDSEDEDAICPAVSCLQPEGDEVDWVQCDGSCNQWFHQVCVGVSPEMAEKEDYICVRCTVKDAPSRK
# Assay: Primary screen for KDM5B Histone Demethylases FDH-coupled qHTS; further: nearly all actives have a fitted effect of over 70% in size; on activity change, negative = inhibition: 0% is about no effect
# Details: FDH-coupled NADH fluorescence (FDH is formaldehyde dehydrogenase); activity change, negative = inhibition: at 57.7 µM (top of the series) unless noted
# Description: Assay Submitter (PI): Qin Yan, Ph.D. (Yale University) and Xiaodong Cheng, Ph.D. (MD Anderson) This project was funded as part of the NCI NEXT Program and Chemical Biology Consortium (CBC) The histone demethylases, KDM5A and KDM5B catalyze the demethylation of lysine 4 on histone H3 (H3K4me3/2). They are overexpressed in a variety of cancers and have been implicated in cancer cell growth, metastasis, drug resistance, and tumor growth. KDM5A is amplified and overexpressed in breast and gastric cancer; and is translocated in leukemia. While KDM5B is highly expressed in human mammary tumors and breast cancer cell lines, but not in normal adult breast tissue. Moreover, knockdown of KDM5B leads to upregulation of tumor suppressor genes, including BRCA1. The goal of this project is to employ qHTS to identify selective small molecule inhibitors of KDM5A/B demethylase activity to better understand the role of KDM5 in cancer and to develop novel therapies. We employed an FDH-coupled assay previously reported by Sakurai et al. to monitor in vitro KDM5 demethylase activity. Compounds showing dose response inhibition are re-acquired, validated, and tested for non-specific interference with the formaldehyde dehydrogenase (FDH) counterscreen. True inhibitors are validated using an AlphaLisa secondary screen, which employs an H3K4(me2-1)-specific antibody to monitor demethylation of a biotin-tagged H3K4(me3) peptide substrate. Inhibitors are profiled against KDM4A and KDM6A AlphaLisa counterscreens to determine level of demethylase specificity; and against the TruHits counterscreen to eliminate non-specific inhibitory activity on the AlphaLISA detection method. Selective inhibitors identified from the primary and secondary screening are tested in cells using immunofluorescence to monitor global H3K4 tri-methylation as a measure of KDM5A/B inhibition. Early Translation Branch (ETB) National Center for Advancing Translational Sciences (NCATS), Rockville, MD National Institute of Health (NIH), Bethesda, Maryland [1] Sakurai, M et al. A miniaturized screen for inhibitors of Jumonji histone demethylases. Mol Biosyst. 2010 Feb;6(2):357-64. doi: 10.1039/b912993f. Epub 2009 Oct 8.
# Materials: 1536-well Black, solid bottom, medium binding assay plate is purchased from Greiner Bio-one. The enzymes (KDM5B) and substrate (H3K4me3/2) are provided by the principal investigators. The buffer for this assay is composed of 50mM HEPES at pH 7.5 with 0.01% Tween-20. FDH coupled Demethylase qHTS protocol: Three microliter enzyme mix (buffer + 200nM KDM5BDeltaAP final concentration) is dispensed into the assay plate using the BioRAPTR Flying Reagent Dispenser (FRD; […]). Compound (at various final concentration) and control solution is pin transferred to the assay plate using the Kalypsys 1536-pin tool apparatus. The assay plate is incubated for 10 min at room temperature followed by addition of 1uL substrate mix (buffer + 100uM ascorbic acid, 50uM ferrous ammonium sulfate, 12.5uM H3K4Me3, 25uM a-ketoglutarate, 0.25 mM NAD+, 0.25 U/mL formaldehyde dehydrogenase using the FRD yielding a total reaction volume of 4 uL. Initial fluorescence (Read1) is detected using the PerkinElmer ViewLux plate reader equipped with 340 nm excitation and 450 nm emission filters. The final fluorescence (Read2) signal is obtained after 30 min of room temperature incubation. Delta RFU is calculated (Read2 - Read1) and is used to generated dose response curves.
# Potency means the concentration at half of the fitted maximal effect; tags describe the fitted curve by direction and shape.
SMILES,Potency,"activity change, negative = inhibition"
Cc1ccc(S(=O)(=O)c2nnn3c2nc(NC2CCCC2)c2ccccc23)cc1C,"inconclusive: 3.55 µM [inhibitor, full curve, poor fit]",–
S=c1[nH]nc(Nc2cccc3ccccc23)s1,"inconclusive: 35.5 µM [inhibitor, partial curve, poor fit]",–
CCOc1ccc(NC(=O)C(C)Oc2ccccc2Cl)c2cccnc12 (stereo not drawn),"inconclusive: 25.1 µM [inhibitor, partial curve, poor fit]",–
CCCN1CCN(C(=O)c2ccc3c(c2)n(Cc2ccc(F)cc2)c(=O)c2ccnn23)CC1,active: 22.4 µM,–
Cc1ccc(C(=O)N2CCN(c3cc(-c4cccs4)[nH]n3)CC2)c(C)c1,"inconclusive: 25.1 µM [inhibitor, single point]",–
O=C(Nc1ccc2[nH]c(=O)[nH]c2c1)c1ccc(Cl)cc1N1CCCC1=O,–,inactive: 8.69%
CCOc1ccccc1NC(=O)C1CCCN1S(=O)(=O)c1ccc2nc(-c3ccccc3)[nH]c2c1 (stereo not drawn),"inconclusive: 35.5 µM [inhibitor, partial curve, poor fit]",–
O=C(NCc1ccco1)c1ccc(Cn2c(SCc3ccccc3F)nc3cccnc32)cc1,"inconclusive: 28.2 µM [inhibitor, partial curve, poor fit]",–
CCN1CCN(c2ncnc3c2cnn3-c2cccc(C)c2)CC1,"inconclusive: 22.4 µM [inhibitor, partial curve, poor fit]",–
CC(C)(C)c1ccc(C(=O)N/N=C/C2CC3CCC2C3)cc1 (stereo not drawn),–,inactive: 2.49%
Clc1ccccc1CN1CCc2ccccc2C1,"inconclusive: 10 µM [inhibitor, partial curve, poor fit]",–
CC(C)CNC(=O)c1cc(C2CC2)nc2c1c(C1CCCN1)nn2C (stereo not drawn),active: 79.4 µM,–
COCCN1CCCCCC(O)c2cc(C(=O)NCCN3CCCCC3)ccc21 (stereo not drawn),"inconclusive: 35.5 µM [inhibitor, single point]",–
COc1ccc(CC(=O)N[C@@H]2CN(c3ccccn3)C[C@H]2CN(C)C)cc1,active: 28.2 µM,–
Cc1cc(C)n2nc(C(=O)OC(C(=O)c3c[nH]c4ccccc34)c3ccccc3)nc2n1 (stereo not drawn),–,inactive: 6.61%
COc1ccccc1C(=O)NC(CCSC)C(=O)NNC(=O)c1csc(N2CCOCC2)n1 (stereo not drawn),"inconclusive: 25.1 µM [inhibitor, partial curve, poor fit]",–
COc1ccc(NC(=O)CCc2ccnc(N3CCCC3)c2)c(C)c1,active: 25.1 µM,–
O=C(NCc1ccc(Cl)cc1)NC1COc2ccccc2C1 (stereo not drawn),"inconclusive: 25.1 µM [inhibitor, partial curve, poor fit]",–
COc1ccc(-c2nnc(-c3ccco3)o2)cc1OC,"inconclusive: 20 µM [inhibitor, partial curve, poor fit]",–
COc1ccccc1-c1nc(-c2nnn3c2COC(c2ccc(Cl)cc2)C3)no1 (stereo not drawn),active: 14.1 µM,–
Cc1ccccc1OCCOc1ccc2ccc(=O)oc2c1,"inconclusive: 28.2 µM [inhibitor, single point]",–
CC(C)CN(CC(C)C)CC(O)Cn1cc(/C=C/C(=O)c2ccccc2)c2ccccc21 (stereo not drawn),"inconclusive: 3.55 µM [inhibitor, full curve, poor fit]",–
O=c1[nH]c(N2CCOCC2)nc2c1CCN(Cc1ccc(Cl)cc1F)CC2,–,inactive: -3.28%

SMILES,Potency,"activity change, negative = inhibition"
O=C(COc1ccc(F)cc1)OCc1cc(=O)n2nc(-c3cccs3)sc2n1,"inconclusive: 2 µM [inhibitor, full curve, poor fit]",–
Cc1c(O)ccc2c(CN3CCCCCC3)cc(=O)oc12,"inconclusive: 25.1 µM [inhibitor, single point]",–
Cc1ccc2oc(C(=O)NC3CCN(C(=O)c4ccco4)CC3)cc(=O)c2c1,–,inactive: 14.8%
CCOc1ccc(S(=O)(=O)Nc2ccc3oc4c(c3c2)CC(C)CC4)cc1 (stereo not drawn),–,inconclusive: -82.1% [inhibitor] [at 11.5 µM]
Cc1ccncc1C(=O)N1CCn2c(nnc2[C@@H]2C[C@@H](O)CN2Cc2ccccc2)C1,"inconclusive: 28.2 µM [inhibitor, single point]",–
COc1ccccc1CNC(=O)COCc1cc(-c2ccc3c(c2)OCO3)on1,"inconclusive: 35.5 µM [inhibitor, single point]",–
Clc1ccc(-c2cn3cc(Cl)ccc3n2)cc1,"inconclusive: 28.2 µM [inhibitor, single point]",–
N#CC1CCN(C(=O)c2nc(-c3ccc(Cl)cc3Cl)c3ccccn23)CC1,active: 28.2 µM,–
Cc1nc2c(OCC(=O)c3ccccc3)cccn2c(=O)c1-c1cc(C)n(-c2ccccc2)n1,"inconclusive: 31.6 µM [inhibitor, partial curve, poor fit]",–
Cc1ccc(NC(=O)N[C@@H]2C=C(C(=O)NCC(N)=O)C[C@@H](O)[C@@H]2O)cc1,"inconclusive: 28.2 µM [inhibitor, partial curve, poor fit]",–
COc1cccc(N2CCN(c3nc(C(=O)NCc4cccc(C)c4)cs3)CC2)c1,–,inactive: -16.1%
C[C@H](O)c1onc(-c2ccc(F)cc2)c1C(=O)NC1CCC1,–,inactive: 28% [at 86.2 µM]
CC(=O)N1CC(CO)C2(CCN(C(=O)c3ccc(Br)cc3)CC2)C1 (stereo not drawn),–,inactive: 13.3%
CCC1CCc2sc(C(=O)N3CCN(c4ncccn4)CC3)cc2C1 (stereo not drawn),–,inactive: 14.3%
O=C(O)C1=NOC2CN(Cc3ccc(Cl)cc3)CC12 (stereo not drawn),"inconclusive: 56.2 µM [inhibitor, partial curve, poor fit]",–
O=C(O)c1ccc(CN2CCC[C@H]2c2nc(-c3ccc(-c4cncnc4)nc3)no2)cc1,–,inactive: -13.4% [at 86.2 µM]
O=C(c1cccnc1N1CC2CC(C1)[C@H]1CCCC(=O)N1C2)N1CC=C(c2ccccc2)CC1 (stereo partly drawn),active: 31.6 µM,–
O=C(c1ccc(F)cc1)N1CCC2(CC1)CCN(CCc1ccccc1)c1ccccc1O2,"inconclusive: 6.31 µM [inhibitor, partial curve]",–
CCN(CC)CCn1cnc(-c2ccccc2)c1-c1cnc(C)s1,"inconclusive: 31.6 µM [inhibitor, partial curve, poor fit]",–
COc1ccc(NC(=O)c2nnn3c2COC(c2ccc(F)cc2)C3)cc1Cl (stereo not drawn),–,inactive: 15.6%
CCCCn1c(-c2ccc(OCC#N)c(OC)c2)nc2c1c(=O)[nH]c(=O)n2CC(C)C,"inconclusive: 22.4 µM [inhibitor, partial curve, poor fit]",–
COCC(=O)N1CCCn2cc(-c3cccc(C#N)c3)nc21,active: 25.1 µM,–
Cc1cccc(N(C)S(=O)(=O)c2cc3[nH]c(=O)c(=O)[nH]c3cc2C)c1,"inconclusive: 39.8 µM [inhibitor, single point]",–

SMILES,Potency,"activity change, negative = inhibition"
Cc1nc(N(C)C)ncc1C(=O)N1CCC(C(=O)NCc2ccccn2)CC1,"inconclusive: 20 µM [inhibitor, single point]",–
CN(C)c1ccc(CNC(=O)C2CCN(Cc3cc4ccccc4n3Cc3ccccc3)CC2)cc1,"inconclusive: 25.1 µM [inhibitor, single point]",–
CN1CCC(Cn2ccc3c(N4CCOCC4)nc(-c4cccc(C(N)=O)c4)cc32)CC1,"inconclusive: 39.8 µM [inhibitor, partial curve, poor fit]",–
Cc1c(Cl)cccc1NC(=O)CSc1nc(=O)n(Cc2ccco2)c2c1CCC2,"inconclusive: 28.2 µM [inhibitor, partial curve, poor fit]",–
O=C(Nc1nnc(Cc2ccccc2)s1)C1CC(=O)N(c2n[nH]c3ccccc23)C1 (stereo not drawn),"inconclusive: 12.6 µM [inhibitor, partial curve, poor fit]",–
CN1Cc2cccn2CC1CNC(=O)c1cccn1C (stereo not drawn),"inconclusive: 11.2 µM [inhibitor, partial curve, poor fit]",–
Cc1ccc(-c2cn3c(n2)CO[C@@H](CNC(=O)c2cccnc2)C3)cc1,"inconclusive: 28.2 µM [inhibitor, single point]",–
Cc1n[nH]c(C)c1S(=O)(=O)Nc1cccc([N+](=O)[O-])c1,–,inactive: 28.8%
CC(C)n1cnnc1SCC(=O)N(C)CCOc1ccc(Br)cc1,–,inactive: 0.694%
COc1ccccc1C(=O)Nc1nnc2n1CCS2,"inconclusive: 5.01 µM [inhibitor, partial curve, poor fit]",–
Cc1nc2c(c(-c3ccc(O)cc3)n1)CN(Cc1ccc(C(F)(F)F)cc1)CCC2,–,inactive: -22.5%
COc1cccc(CN2CCC3(CC2)c2[nH]c4ccccc4c2CCN3C)c1,"inconclusive: 22.4 µM [inhibitor, partial curve]",–
CC(NC(=O)c1ccc2c(c1)NC(=O)CS2)c1ccc(F)cc1F (stereo not drawn),–,inactive: 17.1%
COc1cccc2c1cc1c(=O)n(CC(=O)NCc3ccco3)nc(C)n12,"inconclusive: 1.78 µM [inhibitor, full curve, poor fit]",–
O=c1cc(-c2ccccc2)n2c(SCc3ccccc3Cl)nnc2[nH]1,"inconclusive: 39.8 µM [inhibitor, single point]",–
COc1ccc(-n2c(=O)c3c4c(sc3n(C)c2=O)CN(C(C)=O)CC4)cc1,–,inactive: -9.32%
COc1cccc(CNC(=O)c2nc(Cn3nc(C)c(Br)c3C)no2)c1,"inconclusive: 17.8 µM [inhibitor, partial curve, poor fit]",–
CC(=O)Nc1cccc(Oc2ccc3nnc(-c4ccc(Cl)cc4)n3n2)c1,–,inactive: 19.8%
Cc1[nH]c2ccccc2c1C(=O)C(=O)NC1CCS(=O)(=O)C1 (stereo not drawn),–,inactive: -13%
CN(CCc1cn[nH]c1)c1ccc(-c2nc(-c3ccccc3F)no2)cn1,active: 28.2 µM,–
CCC(CC)NC(=O)COC(=O)c1ccc2nc(C)c(C)nc2c1,–,inactive: 2.81%
Cc1noc(NC(=O)CSc2nccn2-c2ccccc2)n1,–,inactive: 14.4%
